Values quoted from earlier work as cited in patent US4161598A, “1-Oxygenated-2,6-methano-3-benzazocines” (Sterling Drug Inc., priority 1977, dated 1979).

Test system: writhing
Details: Ziering reference; cited from earlier work

SMILES | activity in the writhing test for analgesia in the mouse
COc1ccc2c(c1)[C@]1(C)CCN(C)[C@@H]([C@@H]1C)[C@]2(C)O (relative stereo) [Compound 14] | weakly active
COc1ccc2c(c1)[C@]1(C)CCN(C)[C@@H]([C@@H]1C)[C@@]2(O)c1ccccc1 (relative stereo) [Compound 13] | weakly active
